For assay [1], the target named is T1, human IL-2R α-subunit, monomeric, with AcTev cleavage site and Avi His tag (human).
T1 construct: also called Hu IL-2R α; CD25
T1 chain: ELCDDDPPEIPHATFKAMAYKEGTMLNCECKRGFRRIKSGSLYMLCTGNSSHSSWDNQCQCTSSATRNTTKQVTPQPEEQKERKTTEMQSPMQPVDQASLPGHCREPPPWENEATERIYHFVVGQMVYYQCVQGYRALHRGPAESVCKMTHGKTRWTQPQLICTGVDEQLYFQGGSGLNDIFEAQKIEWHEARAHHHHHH
In words: SPR, receptor on CM5, IL-2 analyte, 25°C, kinetic.

Assay [2] concerns the target T1, human IL-2R α-subunit, monomeric, with …. Kind of assay: SPR, receptor on CM5, IL-2 analyte, 25°C, steady state. For orientation: Surface plasmon resonance follows binding to a sensor surface in real time, without labels.
Assay [3] shares this target. In words: SPR, receptor on CM5, 25°C.
Assay [4] deals with T2, human FAP expressed on stably transfected HEK293 cells (human, UniProt Q12884 1-760).
T2 construct: whole, on cells
In words: FACS on stably transfected HEK293 cells.

The target in assay [5] is T3, human FAP-His (human, UniProt Q12884 27-760).
T3 construct: also called Hu FAP; His-tagged human FAP; not shown: His tag
Kind of assay: SPR, His-tagged human FAP captured via anti-His, apparent bivalent affinity (avidity), 25°C.

The target in assay [6] is T4, human IL-2R βγ heterodimer, subunit-Fc knobs-into-holes fusion (human).
T4 construct: The entries may hold a leader peptide; also called Hu IL-2R βγ; human IL2-R β knob γ hole heterodimer
Kind of assay: SPR, receptor on CM5, 25°C, apparent KD, 1:1 fit.

Assay [7] addresses T3, human FAP-His. In words: SPR bridging: construct captured on immobilized human IL-2R βγ, human FAP analyte, 1:1 fit, 25°C.
The target in assay [8] is T5, cynomolgus IL-2R α-subunit, recombinant monomeric (cynomolgus, UniProt H6WS54 22-240).
T5 construct: also called Cyno IL-2R α
T5 sequence: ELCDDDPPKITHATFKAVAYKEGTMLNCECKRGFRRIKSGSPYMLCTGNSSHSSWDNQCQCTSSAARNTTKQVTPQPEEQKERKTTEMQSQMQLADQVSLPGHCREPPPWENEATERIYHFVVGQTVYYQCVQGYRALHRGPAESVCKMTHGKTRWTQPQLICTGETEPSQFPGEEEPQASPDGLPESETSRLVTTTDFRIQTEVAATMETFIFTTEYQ
In words: SPR, receptor on CM5, 25°C, 1:1 fit.

Assay [9] has as its target T1, human IL-2R α-subunit, monomeric, with …. Kind of assay: SPR, receptor on CM5, 25°C, 1:1 fit.
The target in assay [10] is T6, murine IL-2R α-subunit, recombinant monomeric (murine, UniProt P01590 22-236, limits assumed).
T6 construct: also called Mu IL-2R α
T6 sequence (looked up): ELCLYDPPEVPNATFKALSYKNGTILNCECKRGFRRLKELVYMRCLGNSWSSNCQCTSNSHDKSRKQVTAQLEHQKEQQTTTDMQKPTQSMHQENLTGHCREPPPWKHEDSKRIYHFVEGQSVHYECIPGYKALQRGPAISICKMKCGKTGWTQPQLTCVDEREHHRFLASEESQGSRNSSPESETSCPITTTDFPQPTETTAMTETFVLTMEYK
Kind of assay: SPR, receptor on CM5, 25°C, 1:1 fit.

In assay [11] the target is T7, murine IL-2R βγ heterodimer (β knob γ hole Fc fusion) (murine, UniProt P16297 27-240; P34902 23-263).
T7 construct: also called Mu IL-2R βγ; mouse IL-2R βγ heterodimer; not shown: Fc knob/hole part
T7 sequence (looked up) 1: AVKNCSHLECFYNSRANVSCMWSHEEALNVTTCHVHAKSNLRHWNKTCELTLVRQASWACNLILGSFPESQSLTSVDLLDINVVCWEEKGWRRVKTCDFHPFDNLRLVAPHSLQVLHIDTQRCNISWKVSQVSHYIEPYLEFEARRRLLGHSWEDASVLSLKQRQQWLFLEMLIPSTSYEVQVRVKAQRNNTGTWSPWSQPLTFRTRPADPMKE
T7 sequence (looked up) 2: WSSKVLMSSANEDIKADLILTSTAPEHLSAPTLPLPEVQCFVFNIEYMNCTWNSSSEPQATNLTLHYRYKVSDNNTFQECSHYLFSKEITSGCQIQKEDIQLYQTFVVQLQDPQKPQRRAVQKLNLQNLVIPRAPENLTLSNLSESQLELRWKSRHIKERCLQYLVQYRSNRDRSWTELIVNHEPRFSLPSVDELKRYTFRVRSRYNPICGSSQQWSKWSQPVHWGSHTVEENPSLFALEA
In words: SPR, receptor on CM5, 37°C, 1:1 fit.

Assay [12] deals with T4, human IL-2R βγ heterodimer, subunit-Fc …. Kind of assay: SPR, receptor on CM5, 37°C, 1:1 fit.
In assay [13] the target is T8, cynomolgus IL-2R βγ heterodimer (β knob γ hole Fc fusion) (cynomolgus).
T8 construct: also called Cyno IL-2R βγ
Kind of assay: SPR, receptor on CM5, 37°C, 1:1 fit.

Assay [14] concerns the target T7, murine IL-2R βγ heterodimer (β knob γ …). Kind of assay: SPR, receptor on CM5, 25°C, 1:1 fit.
Assay [15] has as its target T4, human IL-2R βγ heterodimer, subunit-Fc …. In words: SPR, receptor on CM5, 25°C, 1:1 fit.
Assay [16] has as its target T8, cynomolgus IL-2R βγ heterodimer (β knob …). In words: SPR, receptor on CM5, 25°C, 1:1 fit.
The target of assay [17] is T5, cynomolgus IL-2R α-subunit, recombinant …. In words: SPR, receptor on CM5, 37°C, 1:1 fit.
The target in assay [18] is T1, human IL-2R α-subunit, monomeric, with …. Kind of assay: SPR, receptor on CM5, 37°C, 1:1 fit.
Assay [19] deals with T6, murine IL-2R α-subunit, recombinant …. In words: SPR, receptor on CM5, 37°C, 1:1 fit.
Assay [20] addresses T2, human FAP expressed on stably …. In words: FACS on FAP-expressing HEK cells.

Substitutions are numbered along the chain they refer to. Names may count otherwise. “And” between values parts separate entries of the source, which are not always exact repeats. Equal values may be shown once.

B1: Naked IL-2 wt, pool 1 (His-tagged, C125A) (ligand)
chain: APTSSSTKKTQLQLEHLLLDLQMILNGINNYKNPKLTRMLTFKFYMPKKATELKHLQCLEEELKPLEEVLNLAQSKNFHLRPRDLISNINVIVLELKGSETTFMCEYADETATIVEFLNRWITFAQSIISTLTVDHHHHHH
notes: Pool 1 holds more of the larger (ca. 22 kDa) species; the pools putatively differ in O-glycosylation; also called naked wild-type IL-2 pool 1; in-house produced wild-type IL-2
In the case of B1, the Kd was 17.4 nM and 16.6 nM in assay [1]; 30.3 nM and 23.9 nM in assay [2].

B2: Naked IL-2 wt, pool 2 (His-tagged, C125A) (ligand)
chain: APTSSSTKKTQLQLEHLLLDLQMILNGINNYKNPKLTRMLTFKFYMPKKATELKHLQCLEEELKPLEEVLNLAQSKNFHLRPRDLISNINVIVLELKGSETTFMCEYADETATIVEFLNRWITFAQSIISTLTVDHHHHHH
notes: Pool 2 holds more of the smaller (ca. 20 kDa) species; also called naked wild-type IL-2 pool 2; in-house produced wild-type IL-2
As to B2, the Kd in [1] is 10.6 nM and 10 nM; in assay [2], 19.7 nM and 17.6 nM.

B3: 4G8 IgG-IL-2 qm (other)
heavy 1: [no letters for about 100 residues][no letters for about 120 residues][no letters for human IgG1 Fc with changes]GGGGSGGGGSGGGGSAPASSSTKKTQLQLEHLLLDLQMILNGINNYKNPKLTRMLTAKFAMPKKATELKHLQCLEEELKPLEEVLNGAQSKNFHLRPRDLISNINVIVLELKGSETTFMCEYADETATIVEFLNRWITFAQSIISTLT
heavy 2: [no letters for about 100 residues]GWLGNFDYWGQGTLVTVSSASTKGPSVFPLAPSSKSTSGGTAALGCLVKDYFPEPVTVSWNSGALTSGVHTFPAVLQSSGLYSLSSVVTVPSSSLGTQTYICNVNHKPSNTKVDKKVEPKSCDKTHTCPPCPAPEAAGGPSVFLFPPKPKDTLMISRTPEVTCVVVDVSHEDPEVKFNWYVDGVEVHNAKTKPREEQYNSTYRVVSVLTVLHQDWLNGKEYKCKVSNKALGAPIEKTISKAKGQPREPQVCTLPPSRDELTKNQVSLSCAVKGFYPSDIAVEWESNGQPENNYKTTPPVLDSDGSFFLVSKLTVDKSRWQQGNVFSCSVMHEALHNHYTQKSLSLSPGK
light: EIVLTQSPGTLSLSPGERATLSCRASQSVSRSYLAWYQQKPGQAPRLLIIGASTRATGIPDRFSGSGSGTDFTLTISRLEPEDFAVYYCQQGQVIPPTFGQGTKVEIKRTVAAPSVFIFPPSDEQLKSGTASVVCLLNNFYPREAKVQWKVDNALQSGNSQESVTEQDSKDSTYSLSSTLTLSKADYEKHKVYACEVTHQGLSSPVTKSFNRGEC
notes: IgG with knob-into-hole heavy chains, P329G L234A L235A; one IL-2 qm fused to the C-terminus of the knob heavy chain; also called FAP-targeted 4G8-based IgG-IL-2 qm immunoconjugate
In the case of B3, the binding result in assay [3] was “no binding (tested: 300 nM)”. Also, it took 0.9 nM to reach a half-maximal effect in [4] (EC50). In addition, the Kd came to 0.1 nM in the assay with human FAP-His [5] and 5.9 nM in [6].

B4: 29B11 Fab-IL-2 wt-Fab (other)
heavy: EVQLLESGGGLVQPGGSLRLSCAASGFTFSSYAMSWVRQAPGKGLEWVSAIIGSGGITYYADSVKGRFTISRDNSKNTLYLQMNSLRAEDTAVYYCAKGWFGGFNYWGQGTLVTVSSASTKGPSVFPLAPSSKSTSGGTAALGCLVKDYFPEPVTVSWNSGALTSGVHTFPAVLQSSGLYSLSSVVTVPSSSLGTQTYICNVNHKPSNTKVDKKVEPKSCDSGGGGSGGGGSGGGG[no letters for about 150 residues]SGGGGSGGGGSGGGGEVQLLESGGGLVQPGGSLRLSCAASGFTFSSYAMSWVRQAPGKGLEWVSAIIGSGGITYYADSVKGRFTISRDNSKNTLYLQMNSLRAEDTAVYYCAKGWFGGFNYWGQGTLVTVSSASTKGPSVFPLAPSSKSTSGGTAALGCLVKDYFPEPVTVSWNSGALTSGVHTFPAVLQSSGLYSLSSVVTVPSSSLGTQTYICNVNHKPSNTKVDKKVEPKSCD
light: B3 light with S30T, R31S, I50N, G51V, A52G, T54R, Q93I, V94M, I95L
notes: also called 29B11 Fab-IL-2-Fab
For B4, the Kd was 0.32 nM in the assay with human FAP-His [7]; 4.8 nM and 4.3 nM in assay [8]; 5 nM and 4.6 nM in assay [9]; 11.4 nM and 9.6 nM in [10]; 71 nM and 74 nM in [11]; 9.5 nM and 12.4 nM in assay [12]. In addition, the Kd in assay [13] was 14 nM and 19 nM; in assay [14] it was 93 nM and 74 nM; in [15], 6.5 nM and 5.7 nM; in [16] it was 6.9 nM and 6.7 nM; in assay [17], 7.3 nM and 7.4 nM; in assay [18], 7.6 nM and 7.7 nM. Also, in assay [19], the Kd is 13.3 nM and 13.8 nM. In assay [20], the midpoint of the response, the EC50, lay at 0.66 nM.

B5: 28H1 IgG-IL-2 qm (other)
heavy 1: EVQLLESGGGLVQPGGSLRLSCAASGFTFSSHAMSWVRQAPGKGLEWVSAIWASGEQYYADSVKGRFTISRDNSKNTLYLQMNSLRAEDTAVYYCAKGWLGNFDYWGQGTLVTVSSASTKGPSVFPLAPSSKSTSGGTAALGCLVKDYFPEPVTVSWNSGALTSGVHTFPAVLQSSGLYSLSSVVTVPSSSLGTQTYICNVNHKPSNTKVDKKV[no letters for human IgG1 Fc with changes]GGGGSGGGGSGGGGSAPASSSTKKTQLQLEHLLLDLQMILNGINNYKNPKLTRMLTAKFAMPKKATELKHLQCLEEELKPLEEVLNGAQSKNFHLRPRDLISNINVIVLELKGSETTFMCEYADETATIVEFLNRWITFAQSIISTLT
heavy 2: EVQLLESGGGLVQPGGSLRLSCAASGFTFSSHAMSWVRQAPGKGLEWVSAIWASGEQYYADSVKGRFTISRDNSKNTLYLQMNSLRAEDTAVYYCAKGWLGNFDYWGQGTLVTVSSASTKGPSVFPLAPSSKSTSGGTAALGCLVKDYFPEPVTVSWNSGALTSGVHTFPAVLQSSGLYSLSSVVTVPSSSLGTQTYICNVNHKPSNTKVDKKVEPKSCDKTHTCPPCPAPEAAGGPSVFLFPPKPKDTLMISRTPEVTCVVVDVSHEDPEVKFNWYVDGVEVHNAKTKPREEQYNSTYRVVSVLTVLHQDWLNGKEYKCKVSNKALGAPIEKTISKAKGQPREPQVCTLPPSRDELTKNQVSLSCAVKGFYPSDIAVEWESNGQPENNYKTTPPVLDSDGSFFLVSKLTVDKSRWQQGNVFSCSVMHEALHNHYTQKSLSLSPGK
light: B3 light
notes: IgG with knob-into-hole heavy chains, P329G L234A L235A; one IL-2 qm fused to the C-terminus of the knob heavy chain; also called FAP-targeted 28H1-based IgG-IL-2 qm immunoconjugate
In the case of B5, the binding result in [3] is given as “no binding (tested: 300 nM)”. Moreover, the results for the Kd (in the assay with human FAP-His [5]; in [6]) were 0.175 nM and 6.2 nM, respectively.

For the origin of these results see patent US20190322765A1 (Hoffmann-La Roche, published 2019).
